In article PMC4336329 (PLoS ONE, 2015):
Screen size: about 310,000 compounds; about 2,200 (0.71%) showed an effect of 50% or more. Effects have a minus sign here. The list shows a part of the results.

Each compound was assayed against human ether-à-go-go-related gene (hERG) potassium channel (human, UniProt Q12809) (assay: primary screen, population patch clamp on CHO cells stably expressing hERG).
Chain of human ether-à-go-go-related gene (hERG) potassium channel (Q12809 whole entry, looked up): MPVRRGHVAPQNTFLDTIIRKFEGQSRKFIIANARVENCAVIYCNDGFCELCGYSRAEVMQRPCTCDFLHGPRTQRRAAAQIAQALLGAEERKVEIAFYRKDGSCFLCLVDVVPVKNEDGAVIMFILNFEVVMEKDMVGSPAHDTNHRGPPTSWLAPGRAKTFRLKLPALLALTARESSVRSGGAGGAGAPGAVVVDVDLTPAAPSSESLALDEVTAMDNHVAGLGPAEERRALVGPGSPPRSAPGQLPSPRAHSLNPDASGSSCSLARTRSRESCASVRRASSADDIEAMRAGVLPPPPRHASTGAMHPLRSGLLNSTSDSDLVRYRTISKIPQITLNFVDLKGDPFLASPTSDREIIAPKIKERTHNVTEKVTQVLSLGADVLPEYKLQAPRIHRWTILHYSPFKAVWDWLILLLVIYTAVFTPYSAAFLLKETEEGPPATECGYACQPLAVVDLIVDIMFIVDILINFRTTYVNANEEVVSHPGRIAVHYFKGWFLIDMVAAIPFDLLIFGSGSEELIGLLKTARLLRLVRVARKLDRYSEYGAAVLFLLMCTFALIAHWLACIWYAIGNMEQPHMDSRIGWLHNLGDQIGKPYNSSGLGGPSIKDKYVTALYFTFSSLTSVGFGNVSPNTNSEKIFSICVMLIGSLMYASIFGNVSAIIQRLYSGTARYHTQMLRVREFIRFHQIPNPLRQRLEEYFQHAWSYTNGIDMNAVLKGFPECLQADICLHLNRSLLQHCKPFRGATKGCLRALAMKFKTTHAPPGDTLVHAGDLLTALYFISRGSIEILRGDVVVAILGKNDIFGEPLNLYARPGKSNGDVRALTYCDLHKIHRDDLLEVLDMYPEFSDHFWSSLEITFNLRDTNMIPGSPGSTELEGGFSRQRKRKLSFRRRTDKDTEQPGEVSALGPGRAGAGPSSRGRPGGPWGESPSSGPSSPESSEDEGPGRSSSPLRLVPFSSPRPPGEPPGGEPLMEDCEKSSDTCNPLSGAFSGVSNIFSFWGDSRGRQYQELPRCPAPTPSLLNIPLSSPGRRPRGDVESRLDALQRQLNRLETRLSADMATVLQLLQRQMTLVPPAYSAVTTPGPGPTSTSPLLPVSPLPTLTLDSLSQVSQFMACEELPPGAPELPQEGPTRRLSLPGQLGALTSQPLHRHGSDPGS

| Compound | hERG current change (%, negative = inhibition) at 1uM |
| --- | --- |
| NC(=S)N/N=C/c1coc2ccc(O)cc2c1=O | -7.72% |
| COc1ccc(NC(=O)CN2C(=O)c3ccccc3S2(=O)=O)cc1OC | 10.1% |
| C/C(=N/NC(=O)CNC(=O)C(c1ccccc1)c1ccccc1)c1ccco1 | 10.9% |
| COC(=O)c1cc(Cl)cc2c(C)c(C3(O)CCCCC3)[nH]c12 | 11.6% |
| Cc1noc(C)c1S(=O)(=O)Nc1cccc(C(F)(F)F)c1 | 14.2% |
| COc1cccc(C(=O)N2C[C@H]3C[C@@H](C2)c2cccc(=O)n2C3)c1 | 9.82% |
| CC(=O)Nc1cccc(NC(=O)COC(=O)CO/N=C(\C)c2ccc3c(c2)OCO3)c1 | 8.95% |
| Cc1ccc(NC(=S)NNc2ccc([N+](=O)[O-])cc2S(=O)(=O)Nc2ccccc2C(=O)O)cc1C | 11% |
| Nn1c(SCC(=O)NCCC2=CCCCC2)nnc1C(F)(F)F | -6.35% |
| O=C(N/N=C/c1cc(Br)ccc1O)C(=O)Nc1ccccc1OC(F)(F)C(F)F | 2.65% |
| Cc1ccc(S(=O)(=O)N(C)CCCC(=O)N2CCN(c3ccccn3)CC2)cc1.[O-][Cl+3]([O-])([O-])O | -10.1% |
| CC(=O)c1cccc(Nc2ncnc3ccc(Br)cc23)c1 | -2.27% |
| O=C(ONC1=NCCCCC1)c1ccc([N+](=O)[O-])cc1 | 13.7% |
| CNc1ccc2oc(C[C@H]3O[C@@]4(CC[C@H]3C)O[C@H]([C@H](C)C(=O)c3ccc[nH]3)[C@H](C)C[C@H]4C)nc2c1C(=O)O | 14.2% |
| O=C(COC(=O)c1ccc(F)cc1Cl)Nc1cccc(S(=O)(=O)N2CCOCC2)c1 | 5.46% |
| Br.O=C(CN1C2=NCCCN2c2ccccc21)c1ccc([N+](=O)[O-])cc1 | -54% |
| CCCCN(CCCC)c1cn[nH]c(=O)c1Cl | 5.35% |
| COc1ccc(CCNC(=O)c2cnn(-c3ccc(C)c(C)c3)c2NC(=O)c2ccco2)cc1OC | 4.54% |
| CC(C)(Oc1ccc(Cl)cc1)C(=O)Nc1ccncc1 | -6.08% |
| Cc1nc2ccccn2c1/C(O)=C1\C(=O)C(=O)N(CCCn2ccnc2)C1c1ccncc1 (centres unmarked) | 1.38% |
| O=S(=O)(NCCc1ccncc1)c1ccc(S(=O)(=O)N2CCCCCC2)cc1 | -1.37% |
| CC(C)(C)C1CCC(OC(=O)CN2CCOCC2)CC1 (centres unmarked) | 7.27% |

| Compound | hERG current change (%, negative = inhibition) at 1uM |
| --- | --- |
| CC1CCN(S(=O)C23CC4CC(CC(C4)C2)C3)CC1 (centres unmarked) | 16.3% |
| N#C/C(=C\C=C\c1ccccc1[N+](=O)[O-])c1nc(-c2ccc3c(c2)OCO3)cs1 | 2.11% |
| CCC(C(=O)OCC(=O)NC1CCS(=O)(=O)C1)c1ccccc1 (centres unmarked) | 3.33% |
| COCCN=C1NN=C(c2cc(C)n(CC3CCCO3)c2C)CS1 (centres unmarked) | 18.2% |
| COc1ccc(CN2C(=O)c3ccccc3C2C(=O)NCC2CCCO2)c(OC)c1 (centres unmarked) | 12.2% |
| CC(=O)NC(=O)NC(C)Cc1ccccc1 (centres unmarked) | 15.9% |
| O=C(NC1CCCC1)c1cc(-c2ccc(Cl)cc2)on1 | 10.9% |
| O=c1cc(-c2ccc(O)cc2)oc2c(O)c(O)c(O)c(O)c12 | 7.06% |
| Cc1cccc(-c2nc(CS(=O)CC(=O)NCCc3ccc(Cl)cc3)c(C)o2)c1 (centres unmarked) | 21.8% |
| O=C(Nc1nc2ccc(Cl)cc2s1)c1ccc(N2CCCCC2)c([N+](=O)[O-])c1 | 16% |
| Cc1nn(Cc2noc(C(=O)NCCCn3ccnc3)n2)c(C)c1Br | 15.3% |
| Cc1cccc(C(=O)NCC(=O)N2CCOCC2)c1 | 11.8% |
| Cl.OCCN(CCO)CC(O)COc1ccc2c(c1)OCO2 (centres unmarked) | 10.3% |
| CCCCSc1ncc(C(=O)OCC)c(N)n1 | 1.47% |
| Cc1cc[n+](-c2[nH]c(=O)sc2/C=N/N=C(\[O-])CCn2c3ccccc3c3ccccc32)cc1 | 12.1% |
| CC1CCCC(C)N1/N=C/c1ccccc1F (centres unmarked) | 11.8% |
| COc1cc(CNCCc2ccccc2F)ccc1OCC(=O)N1CCCCC1.Cl | 12.8% |
| COc1ccc(NS(=O)(=O)c2ccc(C)c(C(=O)N3CC(C)OC(C)C3)c2)cc1 (centres unmarked) | -3.59% |
| CC(C)(C)c1ccc2c(c1)OCC(C(=O)O)O2 (centres unmarked) | 13.3% |
| Cc1cnc(C(=O)NCCc2ccc(S(=O)(=O)NC(=O)NC3CCCCC3)cc2)cn1 | 7.62% |
| CCOC(=O)C1CCN(C(=O)Cn2c(=O)c3cccn3c3cccnc32)CC1 | 11.3% |
| COc1ccc(NC(=O)c2nn(C)c(C(=O)Nc3ccc(OC)cc3)c2[N+](=O)[O-])cc1 | 16.3% |

| Compound | hERG current change (%, negative = inhibition) at 1uM |
| --- | --- |
| CC(C)CNS(=O)(=O)c1ccc(S(=O)(=O)NC2CCOC(C)(C)C2)cc1 (centres unmarked) | 13.1% |
| O=C(Oc1ccc(C(=S)N2CCOCC2)cc1)c1ccc([N+](=O)[O-])cc1 | 14.5% |
| CCn1c(SCC(=O)NCc2ccco2)nc2cccnc21 | 3.54% |
| COc1cccc(/C=N/NC(=O)c2ccc(CN3c4cccc5cccc(c45)S3(=O)=O)cc2)c1 | 4.52% |
| COc1ccc(-c2nonc2NC(=O)c2oc3ccccc3c2C)cc1OC | 1.91% |
| CC1CCc2nc(NC(=O)CN3CCN(c4ccc(F)cc4)CC3)sc2C1 (centres unmarked) | 13.5% |
| CCOc1ccc2cc(C#N)c(SCC(=O)N3CCOCC3)nc2c1 | 16.9% |
| COc1ccc(NC(=O)CSc2nc3ccsc3c(=O)n2CCCCCC(=O)O)cc1 | 6.65% |
| Cc1cc(NC(=O)c2ccc(NC(=O)c3cccs3)cc2)no1 | -1.25% |
| O=c1cc(O)nc2n1CCCS2 | 14.6% |
| CC(CN1CCN(C)CC1)OC(=O)c1ccccc1Cl (centres unmarked) | 5.36% |
| CCOC(=O)N1CCC(NC(=O)C2=CCN(S(=O)(=O)c3ccc(F)cc3)CC2)CC1 | 5.63% |
| CCN(CC)CCN1C(=O)C(O)=C(C(=O)c2cc3cccc(OC)c3o2)C1c1ccc(F)cc1 (centres unmarked) | 17.1% |
| CC(=O)c1ccccc1OCc1ccc(S(=O)(=O)Cc2ccccc2)cc1 | 9.23% |
| CCOCc1nnc(NS(C)(=O)=O)s1 | 7.92% |
| Cc1ccc(-c2cc(-c3ccccc3)c(C#N)c(Br)n2)cc1 | 2.12% |
| O=C(Nc1cccc(Cl)c1N1CCCCC1)c1ccc(N2CCOCC2)c([N+](=O)[O-])c1 | 1.24% |
| COc1cccc(NC(=O)NC2CC(=O)N(c3ccc4c(c3)OCCO4)C2)c1 (centres unmarked) | 1.62% |
| O=C(NNC(=O)c1ccc(F)c(S(=O)(=O)N2CCOCC2)c1)c1ccc([N+](=O)[O-])cc1 | -12.1% |
| CCC(C)[C@H](NC(=O)[C@@H]1CSC2c3ccccc3C(=O)N21)C(=O)NCc1ccncc1 (some centres unmarked) | 5.04% |
| COc1cccc(-c2nn(Cc3ccccc3)cc2C(=O)O)c1 | 11.9% |
| COC(=O)N/N=C/c1cc([N+](=O)[O-])cc(Br)c1O | 31.9% |

| Compound | hERG current change (%, negative = inhibition) at 1uM |
| --- | --- |
| COc1ccc(N(CC(=O)Nc2ccccc2C(=O)N2CCCC2)S(=O)(=O)c2ccccc2)cc1 | -6.9% |
| COc1ccc(N2CCN(c3nccs3)CC2)cc1 | 13.8% |
| O=[N+]([O-])c1ccc(OCCn2cnc3ccccc32)cc1 | -3.95% |
| CC(C)CN(C(=O)CCCOc1ccc(Cl)cc1Cl)c1c(N)n(Cc2ccccc2)c(=O)[nH]c1=O | 1.36% |
| CCCN(CC(=O)Nc1cc(C)on1)S(=O)(=O)c1cccc(C(F)(F)F)c1 | 11.3% |
| Cc1ccccc1Nc1nc(N)c2ccccc2n1.Cl | 13.7% |
| O=C(Nc1cc(C(F)(F)F)ccc1-n1cncn1)c1ccc([N+](=O)[O-])o1 | 0.813% |
| O=C(CN1C(=O)NC2(CCCC2)C1=O)N1CCN(S(=O)(=O)c2ccccc2)CC1 | 12.9% |
| CC(CCc1ccc(O)cc1)N(C)CCc1ccccc1 (centres unmarked) | -37.4% |
| O=C(COC(=O)C1CCC1)Nc1ncc(Cl)cc1Cl | 8.4% |
| COc1ccc(CCNC(=O)Cn2cc(C(F)(F)F)cc(Cl)c2=O)cc1 | -0.219% |
| Cc1cc(C)c(C#N)c(SCSCc2ccccc2)n1 | 4.89% |
| COc1ccccc1C(=O)N1CCN(C(=O)COc2cccc(C)c2)CC1 | -2.56% |
| Cc1ccc(C)c(NC(=O)CN(C)C(=O)c2cccc(N3C(=O)CCC3=O)c2)c1 | 4.88% |
| CCOC(=O)C1CCCN(C(=S)NC2CCCCC2)C1 (centres unmarked) | -1.2% |
| COc1cccc(/C=N/Nc2nnc3c(n2)[nH]c2ccccc23)c1OC | 13.3% |
| CCC(NC(=O)c1ccccc1NC(=O)c1ccco1)C(=O)NC1CCCCC1 (centres unmarked) | -2.35% |
| O=C(/C=C/c1ccccc1)c1ccc2c3c(cccc13)CC2 | 7.8% |
| C/C(=N\Nc1ccc(S(=O)(=O)Nc2ccccc2)cc1[N+](=O)[O-])c1ccncc1 | 11.4% |
| Cc1ccccc1-c1nnn(CC(=O)Nc2ccc3c(c2)OCCO3)n1 | 7.3% |
